# Test results: PubChem BioAssay AID463173 (ICCB-Longwood Screening Facility, Harvard Medical School, 2010)
# About 4,300 (8.3%) of roughly 52,000 compounds were called active. Rule as the data show it: active = survival mostly below about 52% (no sharp cut-off); inactive = mostly above about 56%. Some of the results follow.
# System: DeltatarO mutant
# Assay: growth inhibition of S. aureus wild type versus tarO mutant, primary screen, teichoic acid synthesis inhibitors, RN4220, OD600 (AID 463173)
# Conditions: OD600, 18 h, hits give low values, screened at 18.75 µg/mL (by protocol)
row,Structure (SMILES),survival
1,CCCCNC(=O)c1cccc(-n2cnc3cccnc32)c1C,inactive: 83%
2,O=C(c1cccc(F)c1)c1ccc2c(c1)CCCO2,inactive: 85%
3,CC1CCCCN1C(=O)c1ccc2c(c1)N(Cc1cccc(Cl)c1)C(=O)c1ccccc1S2=O (stereo not given),inactive: 103%
4,Cc1cc(N(C)Cc2ccccc2)n2nc(-c3ccc(C(C)(C)C)cc3)nc2n1,active: 39%
5,CN1C(=O)SC(CC(=O)O)C1=O (stereo not given),inactive: 89%
6,O=C(OCc1ccco1)c1ccc2c(c1)N(Cc1cccc(F)c1)C(=O)c1ccccc1S2,inactive: 93%
7,COc1ccc(Br)c(C(=O)Nc2cc3c(cc2N2CCCC2)n(C)c(=O)c(=O)n3C)c1,inactive: 94%
8,Cc1ccc(-c2cc(C(=O)OCC(=O)c3ccccc3)c3cccc(Cl)c3n2)cc1,inactive: 67%
9,CCOc1ccccc1NC(=O)CC(c1ccc(F)cc1)N1Cc2ccccc2C1=O (stereo not given),inactive: 99%
10,N=c1n(CCO)c2ccccc2n1Cc1ccccc1F,active: 47%
11,COc1ccc(CCNC(=O)c2cc(=O)c3cc(C)cc(C)c3o2)cc1OC,inactive: 57%
12,COc1ccc(-c2nc(SCC(=O)c3ccc(Br)cc3)n[nH]2)cc1,inactive: 194%
13,Cc1c(CNC2CCC(C)CC2)c(C(=O)O)c(C)n1Cc1ccccc1F (stereo not given),inactive: 83%
14,CCC1CN(C(=O)Nc2ccccc2C(F)(F)F)c2ccccc2O1 (stereo not given),inactive: 60%
15,CCOc1ccccc1C1C(C(N)=O)=C(C)Nc2nc(-c3ccccc3Cl)nn21 (stereo not given),inactive: 138%
16,CCN1C(=O)C2(C(C#N)=C(N)SC(N)=C2C#N)c2ccccc21,active: 2%
17,Cc1cccc(N2CC(c3nc4ccc(C)cc4[nH]3)CC2=O)c1 (stereo not given),inactive: 98%
18,Cc1ccc2c(c1)c(=O)c(C(=O)c1ccccc1)cn2Cc1ccccc1F,inactive: 77%
19,COc1ccc(NC(=O)CC2C(=O)N(c3ccccc3)C(=O)N2CCC2=CCCCC2)cc1 (stereo not given),inactive: 51%
20,COc1ccc(S(=O)(=O)N(CC(=O)Nc2ccc(OC)cc2OC)c2ccc(Cl)cc2)cc1,inactive: 126%
21,COc1cc(NC(=O)C2CCN(S(=O)(=O)c3c(C)noc3/C=C/c3cccs3)CC2)cc(OC)c1,inactive: 54%
22,CCN1C(=O)c2ccccc2S(=O)c2ccc(C(=O)NCc3ccc(C)cc3)cc21 (stereo not given),inactive: 58%
23,CSc1nnc(Cc2ccccc2)n1-c1ccc(C)cc1,inactive: 78%

row,Structure (SMILES),survival
1,COC(=O)c1ccc(C2C=C(c3ccc(Cl)cc3)Nc3nc4ccccc4n32)cc1 (stereo not given),inactive: 86%
2,O=C(CSc1nc(-c2ccc(F)cc2)nc2c1Cc1ccccc1O2)Nc1cccc(C(=O)O)c1,inactive: 63%
3,CCOc1ccccc1-c1noc(CCCC(=O)Nc2cccc(C(F)(F)F)c2)n1,inactive: 61%
4,N#Cc1cccc(NC(=O)C2CCN(c3cnccn3)CC2)c1,inactive: 89%
5,O/N=C/c1cn(-c2ccccc2)nc1-c1ccccc1,inactive: 73%
6,CCOc1ccc(NC(=O)CC2C(=O)N(c3ccc(C)cc3)C(=O)N2C2CCCCC2)cc1 (stereo not given),inactive: 64%
7,O=C(NC1(C(F)(F)F)N=C(c2ccccc2)N(C2CCCCC2)C1=O)c1ccc(F)cc1 (stereo not given),inactive: 80%
8,Cc1cc(C)n(CCc2nc3c4ccccc4nc(SCc4ccc(Cl)cc4)n3n2)n1,inactive: 71%
9,Cn1ccc2cc(S(=O)(=O)N3CCCC(C(=O)NCc4ccc(F)cc4)C3)ccc21 (stereo not given),inactive: 63%
10,CC1Cc2ccccc2N1C(=O)c1nc2ccccc2s1 (stereo not given),inactive: 89%
11,Cc1ccc(C)c(NC(=O)Cn2c(=O)n(-c3ccccc3C)c(=O)c3c2c2cc(C)ccc2n3C)c1,inactive: 90%
12,Cc1ccc(C(C)C)c(OCC(=O)NCC2(N3CCOCC3)CCCCC2)c1,inactive: 48%
13,Cc1cccc(C(=O)Nc2cccc(OCc3cc(=O)n4cc(C)sc4n3)c2)c1,inactive: 75%
14,Cc1ccc(-n2cc3c(c2-c2ccccc2Br)c(=O)n(C)c(=O)n3C)cc1N,inactive: 76%
15,CC(=O)Nc1c(O)c2ccccc2[nH]c1=O,inactive: 77%
16,Cc1ccc(C(=O)NCC(=O)OCc2cc(=O)n3c(C)csc3n2)cc1,inactive: 95%
17,CCc1cc2c(cc3c(=O)n(CC(=O)NC4CCCCC4)nc(CC)n32)s1,inactive: 93%
18,Cc1cn(C)c(CC(=O)N2CCN(c3cccc(C(F)(F)F)c3)CC2)c1C(=O)O,inactive: 126%
19,CCOC(=O)CCN(c1ccccc1)S(=O)(=O)c1cc(-c2cc(C)no2)ccc1C,inactive: 84%
20,Cc1cc(C)c2oc(C(=O)Nc3c(C)n(C)n(-c4ccccc4)c3=O)cc(=O)c2c1,inactive: 65%
21,O=C(NCC(c1cccnc1)N1CCc2ccccc21)c1ccc(F)c(F)c1 (stereo not given),inactive: 52%
22,CC(=O)N1CCc2c(sc3c2c(=O)n(-c2ccccc2C)c(=O)n3CC(=O)c2ccccc2)C1,inactive: 112%
23,COc1ccccc1C(=O)Nc1c(C(=O)N2CCN(c3ccc(F)cc3)CC2)oc2ccccc12,active: 0%

row,Structure (SMILES),survival
1,COc1ccc(/C=N/O)cc1COc1ccc(NC(C)=O)cc1,inactive: 70%
2,COc1ccc(-c2cc(-c3ccccc3)c(C#N)c(SCC(O)CS(=O)(=O)Cc3ccccc3)n2)cc1 (stereo not given),inactive: 74%
3,Cc1ccc2cc(CN(Cc3cccs3)Cc3nnnn3C(C)(C)C)c3nnnn3c2c1,inactive: 56%
4,Cc1ccc2c(=O)cc(C(=O)N(Cc3ccccc3Cl)C3CCS(=O)(=O)C3)oc2c1 (stereo not given),inactive: 118%
5,COc1ccc(S(=O)(=O)N2CCN(C(c3ccc(OC)c(OC)c3)c3nnnn3C3CCCCC3)CC2)cc1 (stereo not given),inactive: 100%
6,CC(O)CNC(=O)C(=O)Nc1c2c(nn1-c1ccc(Cl)cc1)CSC2 (stereo not given),inactive: 64%
7,CCOc1ccc(CCNC(=O)CS(=O)(=O)Cc2nc(-c3cccc(Cl)c3)oc2C)cc1,inactive: 72%
8,COc1ccc(NC(=O)C2CCCN(C(=O)c3cnn(-c4ccccc4)c3-n3cccc3)C2)cc1 (stereo not given),inactive: 70%
9,COc1ccc(-c2noc(C3CCCN(C(=O)c4ccccc4)C3)n2)cc1 (stereo not given),inactive: 94%
10,COc1ccccc1-c1nc2c(c(SCC(=O)Nc3ccccc3F)n1)Cc1c(CO)cnc(C)c1O2,inactive: 88%
11,COc1ccccc1N1CCN(CCCNC(=O)c2nnc(Cc3c(F)cccc3Cl)o2)CC1,inactive: 87%
12,O=S(=O)(NCCc1ccccc1)c1cccc(S(=O)(=O)N2CCOCC2)c1,inactive: 80%
13,Cc1ccnc(N2CCC(C(=O)NCCC(C)C)CC2)n1,inactive: 102%
14,Cc1ccc(NC(=O)C2CCCN2S(=O)(=O)c2cccc3cccnc23)cc1 (stereo not given),inactive: 66%
15,Cc1cc(C)n2nc(CNS(=O)(=O)c3ccc(Cl)cc3)nc2n1,inactive: 78%
16,CC1CN(C(=O)N2CCC(C(=O)NC3CCCCCC3)CC2)c2cc(Cl)ccc2O1 (stereo not given),inactive: 61%
17,O=C(Cn1cc(SCc2cccc(Cl)c2)c2ccccc21)N1CCOCC1,inactive: 79%
18,O=c1[nH]c(SCc2ccc(F)cc2)nc2c1CCCC2,active: 63%
19,COc1cc(C(=O)NC2CC(=O)N(c3cccc(F)c3)C2)cc(OC)c1OC (stereo not given),inactive: 80%
20,CCOc1ccc(CNC(=O)c2cc3c(=O)n(C)c4ccccc4c3s2)cc1,inactive: 72%
21,NC1=NC(=O)CC(C(=O)Nc2ccccc2)S1 (stereo not given),inactive: 82%
22,O=C(c1ccc2c(c1)OCCO2)N(Cc1cccnc1)c1nc2ccc(F)cc2s1,inactive: 73%
23,Cc1ccc(NC(=O)Cn2c(=O)n(Cc3ccco3)c(=O)c3ccccc32)cc1,inactive: 78%

row,Structure (SMILES),survival
1,CCN(CC)CCCNC(=O)c1cc(-c2ccc(OC)c(OC)c2)on1,inactive: 71%
2,COc1ccc2c(c1)NC(c1ccc(OCC(C)C)cc1)=NC(c1ccncc1)=N2,inactive: 119%
3,COc1ccc2c(c1)CC(C(=O)N1CCC(C(N)=O)CC1)CO2 (stereo not given),inactive: 89%
4,COc1ccccc1N1CCN(C(=O)c2oc3ccccc3c2NC(=O)C(C)Oc2ccccc2)CC1 (stereo not given),inactive: 69%
5,Cc1ccc(C(C)C)c(OCCn2cc(C(=O)c3ccco3)c3ccccc32)c1,active: 35%
6,O=C(Nc1cc(Cl)cc(Cl)c1)c1ccc(F)c(S(=O)(=O)N2CCCCCC2)c1,inactive: 124%
7,CCOc1ccc(-c2n[nH]c3c2C(c2ccccc2OC)N(c2ccc(Br)cc2)C3=O)cc1 (stereo not given),inactive: 69%
8,COc1ccc(NC(=O)c2ccco2)cc1NC(=O)COc1cc(C)cc(C)c1,inactive: 121%
9,CCC(=O)N1CCc2cc(Br)cc(S(=O)(=O)N3CCN(c4ccccc4)CC3)c21,inactive: 73%
10,CCc1nnc2c(NCc3ccc(F)cc3)nc3ccccc3n12,inactive: 127%
11,O=c1/c(=C/c2ccc(Br)cc2)sc2nncn12,inactive: 95%
12,CCn1c(SCCN2CCCC2)nnc1C1CCCN(S(C)(=O)=O)C1 (stereo not given),inactive: 92%
13,COc1ccc(CNC(=O)C2CCCN(S(=O)(=O)c3ccc4c(c3)CCCN4C(C)=O)C2)cc1 (stereo not given),inactive: 78%
14,CCOc1ccc2nc(N3CCCC(C(=O)Nc4ccc(Br)c(C)c4)C3)sc2c1 (stereo not given),inactive: 75%
15,CCOC(=O)c1c(C)oc2ncnc(NCCc3ccccc3)c12,inactive: 78%
16,CCc1ccc(N2CCn3c2nc2c3c(=O)n(Cc3cccc(C)c3)c(=O)n2C)cc1,inactive: 76%
17,COc1ccc(C2c3c(n(C)c4ccccc34)C(=O)N2CC(=O)Nc2ccc(Cl)cc2)cc1 (stereo not given),inactive: 62%
18,COc1cc2nc(SCC(=O)Nc3ccc(F)cc3)n3nc(CCn4c(C)nc5ccccc54)nc3c2cc1OC,inactive: 103%
19,Cc1ccc(OC(=O)c2snnc2C)cc1C,inactive: 112%
20,CCCN1CCN(CCNC(=O)Nc2cc(OC)cc(OC)c2)CC1,inactive: 88%
21,Cc1ccc(NC(=O)C(=O)NCC(c2ccc3c(c2)OCO3)N2CCOCC2)c(C)c1 (stereo not given),inactive: 79%
